Data reported in PubChem BioAssay AID720709 (National Center for Advancing Translational Sciences (NCATS), 2013).
The campaign covered roughly 360,000 compounds. About 520 (0.14%) were called active. This list was built around the results that the source calls inconclusive (neither active nor inactive); the mix of calls is not that of the screen. Calls come from the whole dose curve; as a rule, active = well fitted inhibition curve with a large enough effect; inconclusive = small, poorly fitted or top-dose-only effect; inactive = no such curve, though single readings can be large or run the other way. Potencies of inconclusive entries are left out as doubtful fits.
Note: nearly all actives have a fitted effect of over 50% in size.
Potency is the fitted concentration of half-maximal effect; tags give direction and shape of the fitted curve.
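Throughout, for activity change, negative = inhibition: plate controls were vehicle for no effect and positive control for full effect.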

The compounds below were run against Rap guanine nucleotide exchange factor 3 (Homo sapiens) (UniProt O95398) (assay: qHTS for Antagonist of cAMP-regulated guanine nucleotide exchange factor 3 (EPAC1): primary screen). Conditions: EPAC1 GEF assay, Rap1b-BODIPY-GDP exchange fluorescence; activity change, negative = inhibition: at 115 µM (top of the series).
Chain of UniProt O95398 (O95398 whole entry, looked up): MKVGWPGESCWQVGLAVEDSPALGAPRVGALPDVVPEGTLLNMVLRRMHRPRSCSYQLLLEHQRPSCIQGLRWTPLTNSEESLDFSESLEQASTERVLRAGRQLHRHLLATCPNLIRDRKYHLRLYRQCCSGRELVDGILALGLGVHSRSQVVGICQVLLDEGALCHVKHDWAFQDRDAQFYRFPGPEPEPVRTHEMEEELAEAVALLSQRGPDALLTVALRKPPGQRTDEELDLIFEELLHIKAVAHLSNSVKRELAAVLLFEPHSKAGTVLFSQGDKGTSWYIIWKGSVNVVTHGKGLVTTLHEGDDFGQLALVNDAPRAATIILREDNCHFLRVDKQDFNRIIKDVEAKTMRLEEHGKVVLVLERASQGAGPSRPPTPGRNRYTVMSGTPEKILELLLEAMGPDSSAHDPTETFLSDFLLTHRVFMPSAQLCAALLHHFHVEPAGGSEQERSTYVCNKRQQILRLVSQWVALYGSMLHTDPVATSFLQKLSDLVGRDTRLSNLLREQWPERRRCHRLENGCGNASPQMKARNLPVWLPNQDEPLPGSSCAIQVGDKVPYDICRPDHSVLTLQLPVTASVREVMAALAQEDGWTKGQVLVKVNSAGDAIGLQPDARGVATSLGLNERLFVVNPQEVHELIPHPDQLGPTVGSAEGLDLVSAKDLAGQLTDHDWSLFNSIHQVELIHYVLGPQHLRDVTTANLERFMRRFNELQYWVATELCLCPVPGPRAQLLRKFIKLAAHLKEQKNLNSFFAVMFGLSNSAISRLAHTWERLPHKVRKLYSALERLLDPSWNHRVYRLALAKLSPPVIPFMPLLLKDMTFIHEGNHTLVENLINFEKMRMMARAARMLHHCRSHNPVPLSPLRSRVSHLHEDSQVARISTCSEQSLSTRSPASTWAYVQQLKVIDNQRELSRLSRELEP
For `O=C(NCC(c1ccco1)N1CCc2ccccc2C1)c1ccc(Cl)c([N+](=O)[O-])c1` (centres undefined), the “activity change, negative = inhibition” value was inactive: 5.52%. In the case of `CC(C)CN(CC(C)C)C(=S)Nc1ccc(Cl)cc1`, the Potency is reported as inconclusive [inhibitor, partial curve, poor fit]. In the case of `O=c1[nH]c(/C=C/c2ccc(Cl)cc2Cl)c([N+](=O)[O-])c(=O)[nH]1`, the Potency is reported as inconclusive [inhibitor, partial curve]. In the case of `Cc1cc(CN(C)C(=O)CC2C(=O)NCCN2Cc2ccc(F)c(F)c2)on1` (centres undefined), the Potency is reported as inconclusive [inhibitor, partial curve]. `COc1ccc(C(C)=O)cc1COc1ccc(Cl)cc1Cl` was tested, and the Potency was inconclusive [inhibitor, full curve, poor fit]. With `COc1ccc(-c2cnc3c(NC(C)=O)cc(-c4ccsc4)cn23)cc1OC` the Potency was inconclusive [inhibitor, partial curve, poor fit]. For `O=C(CSc1ncnc2[nH]ncc12)Nc1cccc(Oc2ccccc2)c1`, the Potency was inconclusive [inhibitor, single point]. With `COC(=O)c1cc(C#N)c(N(C)Cc2ccccc2)nc1C` the “activity change, negative = inhibition” value was inactive: -5.19%. For `CCCN(C(=O)COC(=O)CSc1ccc([N+](=O)[O-])cc1)C1CCS(=O)(=O)C1` (centres undefined), the “activity change, negative = inhibition” value was inactive: 4.53%. For `Cc1nc2ccccc2c(=O)n1/N=C/c1c(O)ccc2ccccc12`, the Potency was inconclusive [inhibitor, partial curve, poor fit]. `Cc1ccc(C23CC4CC(CC(C(=O)NC(C)C(N)=O)(C4)C2)C3)cc1` (centres undefined) was tested, and the “activity change, negative = inhibition” value was inactive: 12.6%. `CNc1nc(-c2c(C)n(C)c3ccc(OC)cc23)cs1` was tested, and the Potency was inconclusive [inhibitor, full curve, poor fit]. In the case of `Cc1ccc(NC(=S)N(Cc2ccc(Br)cc2)Cc2ccc(C(=O)O)cc2)cc1C`, the activity change, negative = inhibition is reported as inconclusive: -35.5% [inhibitor]. For `Cn1c(CNC(=O)c2ccco2)nnc1SCC(=O)N1CCN(c2ccccc2F)CC1`, the “activity change, negative = inhibition” value was inactive: -14.2%. With `COc1ccc(CCNC(=O)c2cc(C(C)C)on2)cc1OC` the Potency was inconclusive [inhibitor, single point]. `Nc1ccn(C2C=CC(CO)O2)c(=O)n1` (centres undefined) was tested, and the Potency was inconclusive [inhibitor, single point]. In the case of `CCc1cc(C(N)=O)c(NC(=O)c2ccc(OC)cc2)s1`, the Potency is reported as inconclusive [inhibitor, partial curve]. With `COc1ccc(Cl)cc1NC(=O)CN(C)C(=O)c1cc(-c2cccs2)nn1-c1ccccc1` the Potency was inconclusive [inhibitor, full curve, poor fit]. For `O=C(Nc1ccccc1N1CCOCC1)c1cc(-c2ccco2)nc2ccccc12`, the Potency was inconclusive [inhibitor, single point]. In the case of `Cc1ccc2cc(CN(CC(C)C)S(=O)(=O)c3ccccc3)c(=O)[nH]c2c1`, the Potency is reported as inconclusive [inhibitor, single point]. With `COCCCN(CC(=O)Nc1ccc(F)cc1)S(=O)(=O)c1cccs1` the Potency was inconclusive [inhibitor, full curve, poor fit]. `Clc1ccc(Nc2ncnc3c2cnn3-c2ccccc2)cc1` was tested, and the “activity change, negative = inhibition” value was inactive: -11.4%. With `N=C(N)SCc1ccccn1` the “activity change, negative = inhibition” value was inactive: 4.58%. In the case of `O=C(c1cc(COc2ccc(F)cc2F)on1)N1CCOCC1`, the Potency is reported as inconclusive [inhibitor, partial curve, poor fit]. With `CN1C(=O)/C(=C/c2ccc(-c3ccccc3[N+](=O)[O-])o2)SC1=Nc1ccc(Cl)c(C(=O)O)c1` the Potency was inconclusive [inhibitor, single point]. `NS(=O)(=O)c1ccc2c(c1)C(=NO)c1cc(S(N)(=O)=O)ccc1-2` was tested, and the Potency was inconclusive [inhibitor, partial curve, poor fit]. For `O=C(Nc1ccccc1C(=O)Nc1nnc(C(F)(F)F)s1)c1ccccc1Cl`, the Potency was inconclusive [inhibitor, partial curve]. `O=c1[nH]nc(CNc2ccc(O)cc2)c2ccccc12` was tested, and the Potency was active: 35.5 µM. In the case of `COc1ccc(Cl)cc1NC(=S)N1CCC(c2ccc(C)cc2)C1` (centres undefined), the Potency is reported as inconclusive [inhibitor, single point]. For `Nc1ncnc2c1nc(Br)n2[C@@H]1O[C@@H]2COP(=O)(O)O[C@H]2[C@H]1O`, the Potency was active: 1.26 µM. In the case of `COc1ccc([C@H]2CC(=O)C=C(c3ccnc4ccc(Cl)cc34)C2)cc1`, the Potency is reported as inconclusive [inhibitor, single point]. For `O=C1COc2ccc(C(=O)COC(=O)c3ccc4ccccc4n3)cc2N1`, the Potency was inconclusive [inhibitor, partial curve]. `Cc1ccc(CNc2ccc(O)cc2)cc1` was tested, and the Potency was inconclusive [inhibitor, full curve]. `CCN(CC)c1ccc(/C=N/NC(=O)c2cnccn2)cc1` was tested, and the Potency was inconclusive [inhibitor, full curve, poor fit]. With `COC(=O)CCC(=O)OC1(C)C(=O)C=C2C=C(C3CC3)N(CCCCO)C=C2C1=O` (centres undefined) the Potency was inconclusive [inhibitor, single point]. With `Cc1n[nH]c(=S)n(NC(=O)/C=C/C(=O)Nn2c(=S)[nH]nc(C)c2=O)c1=O` the Potency was inconclusive [inhibitor, single point]. `CCCNC(=O)COC(=O)c1ccc(S(=O)(=O)N2CCCCCC2)cc1` was tested, and the Potency was inconclusive [inhibitor, partial curve]. `CC1CCC(C(C)C)C(OC(=O)Cn2c(-c3ccc(Cl)cc3)[n+](C)c3ccccc32)C1` (centres undefined) was tested, and the “activity change, negative = inhibition” value was inactive: -12.9%. For `CC(=O)N1c2ccc(S(=O)(=O)NCCC(=O)Nc3cccc(Cl)c3)cc2CC1C` (centres undefined), the “activity change, negative = inhibition” value was inactive: -17.8%. In the case of `OC(CNCCc1ccc(C(F)(F)F)cc1)COc1ccc2ccccc2c1` (centres undefined), the activity change, negative = inhibition is reported as inconclusive: -31.5% [inhibitor]. `O=c1cc[nH]c2c1ccc1c(=O)cc[nH]c12` was tested, and the “activity change, negative = inhibition” value was inactive: -26.1%. In the case of `COC(=O)c1ccccc1NS(=O)(=O)c1c(C)noc1C`, the “activity change, negative = inhibition” value is reported as inactive: -11.2%. With `O=C(N/N=C\c1cc2c(cc1Cl)OCO2)c1ccc(Br)s1` the Potency was inconclusive [inhibitor, single point]. With `COc1ccc(-n2c(=S)[nH]c3sc(-c4ccccc4)cc3c2=O)c(OC)c1` the Potency was inconclusive [inhibitor, partial curve]. In the case of `O=S(=O)(c1ccc(S(=O)(=O)N(Cc2ccco2)Cc2ccccc2Cl)cc1)N1CCCC1`, the Potency is reported as inconclusive [inhibitor, full curve, poor fit]. `Cc1sc2nc3c(SC(C)C(=O)O)cc(C(=O)c4ccccc4O)cn3c(=O)c2c1C` (centres undefined) was tested, and the Potency was inconclusive [inhibitor, single point]. For `CC(C)(C)N1C(=O)c2ccc(C(=O)Nc3ccc(O)cc3)cc2C1=O`, the Potency was inconclusive [inhibitor, partial curve]. For `CC(CCc1ccccc1)NC(=O)CCNS(=O)(=O)c1ccccc1` (centres undefined), the “activity change, negative = inhibition” value was inactive: -9.99%. In the case of `COc1cccc(-c2cc(C(=O)Nc3cc(C)n(Cc4ccc(Cl)cc4)n3)no2)c1`, the “activity change, negative = inhibition” value is reported as inactive: -0.747%. `Cc1csc2nc(CNS(=O)(=O)c3ccc4c(c3)CCCC4)cn12` was tested, and the Potency was inconclusive [inhibitor, single point]. In the case of `O=C1c2c(-c3ccc(Br)cc3)noc2CCN1Cc1cn(C2CCCC2)nn1`, the “activity change, negative = inhibition” value is reported as inactive: -9.82%. With `O=C(NC1(C(F)(F)F)OCCO1)c1ccc(F)cc1` the Potency was inconclusive [inhibitor, single point]. In the case of `Cc1ccsc1C(=O)OCC(=O)c1ccc[nH]1`, the “activity change, negative = inhibition” value is reported as inactive: -6.98%. In the case of `COc1ccc(NC(=O)C2Cc3cc(S(=O)(=O)N4CCCCC4)ccc3N2C(C)=O)cc1Cl` (centres undefined), the Potency is reported as inconclusive [inhibitor, full curve, poor fit]. `Fc1cccc(F)c1-n1c(CN2CCCCC2)csc1=S` was tested, and the Potency was inconclusive [inhibitor, full curve, poor fit]. With `O=C(/C=C/c1ccco1)c1ccccc1O` the Potency was inconclusive [inhibitor, single point]. For `COc1ccc(NS(=O)(=O)c2cc(NC(=O)C3CCCCC3)ccc2N2CCOCC2)cc1`, the Potency was inconclusive [inhibitor, full curve]. For `Cc1cc(-c2nnc3n2N=C(c2ccccc2)CS3)n[nH]1`, the Potency was inconclusive [inhibitor, single point]. In the case of `Clc1nnc(NC2CCCCC2)c(Cl)c1Cl`, the Potency is reported as inconclusive [inhibitor, partial curve]. In the case of `CCCS(=O)(=O)c1c(S(=O)(=O)CCC)c2c(N)cccn2c1C(=O)c1ccc(OC)cc1`, the Potency is reported as inconclusive [inhibitor, single point]. In the case of `CCOC(=O)c1c(C)[nH]c(C)c1S(=O)(=O)N1c2ccccc2CC1C` (centres undefined), the Potency is reported as inconclusive [inhibitor, full curve, poor fit]. `O=C1NC(=S)/C(=C\c2ccc(-c3ccccc3Cl)o2)S1` was tested, and the Potency was inconclusive [inhibitor, partial curve]. With `O=C(Oc1ccc[nH]c1=O)c1ccc(F)cc1` the “activity change, negative = inhibition” value was inactive: 17.3%. With `Cn1c(Cn2c(=O)sc3ccccc32)nnc1SCc1ccccc1` the Potency was inconclusive [inhibitor, single point]. With `COc1ccc(NC(=O)C(c2ccncc2)n2c(=O)c(-c3ccccc3)nc3ccccc32)cc1` (centres undefined) the “activity change, negative = inhibition” value was inactive: -2.53%. `C/C(=N\Nc1ccc(F)cc1F)c1ccccc1O` was tested, and the “activity change, negative = inhibition” value was inactive: -22.5%. For `O=C(COC(=O)CCc1ccccc1)NC(c1ccccc1)c1ccccc1`, the Potency was inconclusive [inhibitor, full curve, poor fit]. With `COc1ccccc1NC(=O)NC1(C)CCS(=O)(=O)C1` (centres undefined) the “activity change, negative = inhibition” value was inactive: 1.98%. With `N=C1/C(=C/c2cccs2)C(=O)N=C2SN=C(SCc3ccccc3)N12` the Potency was active: 79.4 µM.
